The record followed here is the supplement of paper PMC11417369.

Some of the results follow.

For the assay, the system named is PfHDP1 homeodomain (GST-tagged). Nature of the assay: gcPBM binding intensity (ln(normalized median fluorescence intensity)); higher = stronger DNA binding. In a few lines:
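For binding intensity, the highest Masliner-normalised natural-log median intensity across replicate spots of either probe orientation was taken. Protein bound to the array was stained with Alexa488 anti-GST antibody and scanned at 488 nm. The protein, GST-tagged P. falciparum DNA-binding domains from E. coli at about 25 μg on average, had been applied for 1 h to an Agilent 4 × 180k array of primer-extended double-stranded 36-bp intergenic genomic probes and negative controls.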
As to “CGGATCTATAAGTGTACACAATCTAGCGAAAAGTTT [CACACA_site4932]”, the “gcPBM binding intensity (ln)” value turned out to be 6.41.

Turning to “AATTTGAAATAAAGTAGTACAGTATATAAAAATATA [XGTACX_site128]”, the “gcPBM binding intensity (ln)” value is 6.42.

On to “TTAGAAATTCATTTTACACACAATTCAAAAGAATGT [CACACA_site2104]”, for which the “gcPBM binding intensity (ln)” value amounted to 6.08.

With “ATAATGATTATAATATGTACATAAATATATATATTA [XGTACX_site5029]”, the “gcPBM binding intensity (ln)” value is 6.64.

Take “TATATATCTATATTTACACACAGTTACTATGTAGAT [CACACA_site7532]”: the “gcPBM binding intensity (ln)” value is 6.27.

With “ATAATATGTATAATCACACATTTTTCTTTTAAGACA [CACACA_site5297]”, the “gcPBM binding intensity (ln)” value was 6.07.

Regarding “GTTAAACTTAATATCGGTACACACACAAGATAAGAA [XGTACX_site1660]”, the “gcPBM binding intensity (ln)” value was found to be 6.97.

Turning to “ACCATATAAATAAACACACACACACCCATATATATA [CACACA_site2321]”, the “gcPBM binding intensity (ln)” value worked out at 6.98.

On to “AAATATATTATATTTAGTACGCATATATAATATGCA [XGTACX_site4835]”, for which the “gcPBM binding intensity (ln)” value is 6.07.

As to “ATGAAAATTTATATTGCACACATAGGGAATAAAAAA [CACACA_site8667]”, the “gcPBM binding intensity (ln)” value was 10.4.

Consider “AGTTAATTAATAGGCACACATATATATGTATAAATA [CACACA_site523]”, for which the “gcPBM binding intensity (ln)” value was 6.97.

Regarding “TAAAATATCATAGATAGTACATATAACGTTTTATAT [XGTACX_site5666]”, the “gcPBM binding intensity (ln)” value is 6.16.

As for “ATCGAAATTTTAGAATATATATGATGTTACTTAAGT [GTGCAC_negctrl_site611]”, the “gcPBM binding intensity (ln)” value turned out to be 6.29.

Regarding “CATGACATAAAAAATATACACACTATAATATATATA [CACACA_site1402]”, the “gcPBM binding intensity (ln)” value came to 6.85.

Regarding “GTGGCTACTATATATTGTACGATATTATATATATAC [XGTACX_site8376]”, the “gcPBM binding intensity (ln)” value came out at 6.79.

Take “AGAATAAGAATTATTAGTACTTATAAATATTATATT [XGTACX_site7228]”: the “gcPBM binding intensity (ln)” value was found to be 6.04.

Consider “GTAAATACACATATGTGTACATATATATATATATAT [XGTACX_site3696]”, for which the “gcPBM binding intensity (ln)” value worked out at 9.3.

For the sequence “CTATTACATTAAATGTGTACATATATATATATATAT [XGTACX_site5233]”, the “gcPBM binding intensity (ln)” value was found to be 9.41.

Take “TAATTTAAAATATATAGTACACACGTGAACACAAAT [XGTACX_site792]”: the “gcPBM binding intensity (ln)” value was found to be 6.99.

“GGTTCATTAAAGTGTACACATAAATACCGTAACATT [CACACA_site6002]”: the “gcPBM binding intensity (ln)” value was determined as 7.

In the case of “CTAAGGTATGATTAATCACACACATAAATATATATA [CACACA_site8847]”, the “gcPBM binding intensity (ln)” value was found to be 6.82.

“GGAATAAAGACAGCACGTACATATCTTACGAAGCTC [XGTACX_site3918]”: the “gcPBM binding intensity (ln)” value was determined as 6.13.

With “CACAAGAAAATTCACACACACACATATATATATATA [CACACA_site3880]”, the “gcPBM binding intensity (ln)” value came out at 9.21.

Turning to “TCCTTAATTCAAAAAATAATATCTTATATTTCAAAT [CACACA_negctrl_site1592]”, the “gcPBM binding intensity (ln)” value is 5.9.
